In the supplement of paper PMC8728848:
The other results are listed elsewhere or left out.

Key:
Test in all cases: glycan array binding signal (z-score within array); higher = stronger binding
Conditions in all cases: glycan notation: IUPAC condensed, linker removed
[1] = biological target: Neu5Ac(a2-6)Gal(b1-4)GlcNAc(b1-2)Man(a1-3)[Man(a1-6)]Man(b1-4)GlcNAc(b1-4)GlcNAc
Procedure, shortened: (§1)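 Negative Z-scores can be read as non-binding. The Z-score is calculated within each array and then averaged across arrays of one protein sequence at different concentrations or buffers and across linkers. Arrays, 3228 in all, were curated from the Consortium for Functional Glycomics database and kept only where the protein sequence was available.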

[2] = biological target: Neu5Ac(a2-6)Gal(b1-4)GlcNAc(b1-2)Man(a1-3)[Neu5Ac(a2-3)Gal(b1-4)GlcNAc(b1-2)Man(a1-6)]Man(b1-4)GlcNAc(b1-4)GlcNAc
Procedure, shortened: as §1

[3] = biological target: Neu5Ac(a2-6)Gal(b1-4)GlcNAc(b1-2)Man(a1-3)[Neu5Ac(a2-6)Gal(b1-4)GlcNAc(b1-2)Man(a1-6)]Man(b1-4)GlcNAc(b1-4)GlcNAc
Procedure, shortened: as §1

[4] = biological target: Neu5Ac(a2-6)Gal(b1-4)GlcNAc(b1-2)Man(a1-3)[Neu5Ac(a2-6)Gal(b1-4)GlcNAc(b1-2)Man(a1-6)]Man(b1-4)GlcNAc(b1-4)[Fuc(a1-6)]GlcNAc
Procedure, shortened: as §1

[5] = biological target: Neu5Ac(a2-6)Gal(b1-4)GlcNAc(b1-2)Man(a1-6)Man(b1-4)GlcNAc(b1-4)GlcNAc
Procedure, shortened: as §1

[6] = biological target: Neu5Ac(a2-6)Gal(b1-4)GlcNAc(b1-2)Man(a1-6)[Gal(b1-4)GlcNAc(b1-2)Man(a1-3)]Man(b1-4)GlcNAc(b1-4)GlcNAc
Procedure, shortened: as §1

[7] = biological target: Neu5Ac(a2-6)Gal(b1-4)GlcNAc(b1-2)Man(a1-6)[GlcNAc(b1-2)Man(a1-3)]Man(b1-4)GlcNAc(b1-4)GlcNAc
Procedure, shortened: as §1

[8] = biological target: Neu5Ac(a2-6)Gal(b1-4)GlcNAc(b1-2)Man(a1-6)[Man(a1-3)]Man(b1-4)GlcNAc(b1-4)GlcNAc
Procedure, shortened: as §1

[9] = biological target: Neu5Ac(a2-6)Gal(b1-4)GlcNAc(b1-2)[Neu5Ac(a2-6)Gal(b1-4)GlcNAc(b1-4)]Man(a1-3)[GlcNAc(b1-4)][Neu5Ac(a2-6)Gal(b1-4)GlcNAc(b1-2)[Neu5Ac(a2-6)Gal(b1-4)GlcNAc(b1-6)]Man(a1-6)]Man(b1-4)GlcNAc(b1-4)GlcNAc
Procedure, shortened: as §1

[10] = biological target: Neu5Ac(a2-6)Gal(b1-4)GlcNAc(b1-2)[Neu5Ac(a2-6)Gal(b1-4)GlcNAc(b1-4)]Man(a1-3)[GlcNAc(b1-4)][Neu5Ac(a2-6)Gal(b1-4)GlcNAc(b1-4)Man(a1-6)]Man(b1-4)GlcNAc(b1-4)GlcNAc
Procedure, shortened: as §1

[11] = biological target: Neu5Ac(a2-6)Gal(b1-4)GlcNAc(b1-2)[Neu5Ac(a2-6)Gal(b1-4)GlcNAc(b1-6)]Man(a1-6)[Neu5Ac(a2-6)Gal(b1-4)GlcNAc(b1-2)Man(a1-3)][GlcNAc(b1-4)]Man(b1-4)GlcNAc(b1-4)GlcNAc
Procedure, shortened: as §1

[12] = biological target: Neu5Ac(a2-6)Gal(b1-4)GlcNAc(b1-3)Gal(b1-3)GlcNAc
Procedure, shortened: as §1

[13] = biological target: Neu5Ac(a2-6)Gal(b1-4)GlcNAc(b1-3)Gal(b1-4)GlcNAc
Procedure, shortened: as §1

[14] = biological target: Neu5Ac(a2-6)Gal(b1-4)GlcNAc(b1-3)Gal(b1-4)GlcNAc(b1-2)Man(a1-3)[Neu5Ac(a2-6)Gal(b1-4)GlcNAc(b1-3)Gal(b1-4)GlcNAc(b1-2)Man(a1-6)]GalNAc
Procedure, shortened: as §1

[15] = biological target: Neu5Ac(a2-6)Gal(b1-4)GlcNAc(b1-3)Gal(b1-4)GlcNAc(b1-3)Gal(b1-4)GlcNAc
Procedure, shortened: as §1

[16] = biological target: Neu5Ac(a2-6)Gal(b1-4)GlcNAc(b1-3)Gal(b1-4)GlcNAc(b1-3)Gal(b1-4)GlcNAc(b1-2)Man(a1-3)[Neu5Ac(a2-6)Gal(b1-4)GlcNAc(b1-3)Gal(b1-4)GlcNAc(b1-3)Gal(b1-4)GlcNAc(b1-2)Man(a1-6)]GalNAc
Procedure, shortened: as §1

[17] = biological target: Neu5Ac(a2-6)Gal(b1-4)GlcNAc(b1-3)Gal(b1-4)GlcNAc(b1-3)GalNAc
Procedure, shortened: as §1

[18] = biological target: Neu5Ac(a2-6)Gal(b1-4)GlcNAc(b1-3)Gal(b1-4)GlcNAc(b1-3)[Neu5Ac(a2-6)Gal(b1-4)GlcNAc(b1-3)Gal(b1-4)GlcNAc(b1-6)]GalNAc
Procedure, shortened: as §1

[19] = biological target: Neu5Ac(a2-6)Gal(b1-4)GlcNAc(b1-3)Gal(b1-4)GlcNAc(b1-6)[Gal(b1-3)]GalNAc
Procedure, shortened: as §1

[20] = biological target: Neu5Ac(a2-6)Gal(b1-4)GlcNAc(b1-3)Gal(b1-4)[Fuc(a1-3)]GlcNAc(b1-3)Gal(b1-4)[Fuc(a1-3)]GlcNAc
Procedure, shortened: as §1

[21] = biological target: Neu5Ac(a2-6)Gal(b1-4)GlcNAc(b1-3)GalNAc
Procedure, shortened: as §1

[22] = biological target: Neu5Ac(a2-6)Gal(b1-4)GlcNAc(b1-3)[Neu5Ac(a2-6)Gal(b1-4)GlcNAc(b1-6)]GalNAc
Procedure, shortened: as §1

[23] = biological target: Neu5Ac(a2-6)Gal(b1-4)GlcNAc(b1-6)GalNAc
Procedure, shortened: as §1

[24] = biological target: Neu5Ac(a2-6)Gal(b1-4)GlcNAc(b1-6)[Gal(b1-3)GlcNAc(b1-3)]Gal(b1-4)Glc
Procedure, shortened: as §1

[25] = biological target: Neu5Ac(a2-6)Gal(b1-4)GlcNAc(b1-6)[Gal(b1-3)]GalNAc
Procedure, shortened: as §1

[26] = biological target: Neu5Ac(a2-6)Gal(b1-4)GlcNAc6S
Procedure, shortened: as §1

[27] = biological target: Neu5Ac(a2-6)GalNAc
Procedure, shortened: as §1

[28] = biological target: Neu5Ac(a2-6)GalNAc(b1-4)GlcNAc
Procedure, shortened: as §1

[29] = biological target: Neu5Ac(a2-6)GalNAc(b1-4)GlcNAc6S
Procedure, shortened: as §1

[30] = biological target: Neu5Ac(a2-6)GlcNAc(b1-4)GlcNAc
Procedure, shortened: as §1

[31] = biological target: Neu5Ac(a2-6)GlcNAc(b1-4)GlcNAc(b1-4)GlcNAc
Procedure, shortened: as §1

B1: AT1G15820(NC) (Arabidopsis thaliana) (protein)
chain: MAMAVSGAVLSGLGSSFLTGGKRGATALASGVGDAIAPFSFGSLLGTQLLLMGWVESKRWVDFFNPDSQSVEWATPWSKTAENFANYTGDQGYPGGRFFDPLGLAGKNRDGVYEPDFEKLERLKLAEIKHSRLAMVAMLIFYFEAGQGKTPLGALGL
glycan array binding signal (z-score) [1]: -0.25 | glycan array binding signal (z-score) [2]: -0.265 | glycan array binding signal (z-score) [3]: 0.112 | glycan array binding signal (z-score) [4]: 0.316 | glycan array binding signal (z-score) [5]: -0.154 | glycan array binding signal (z-score) [6]: -0.043 | glycan array binding signal (z-score) [7]: -0.485 | glycan array binding signal (z-score) [8]: -0.633 | glycan array binding signal (z-score) [9]: -0.4 | glycan array binding signal (z-score) [10]: -0.69 | glycan array binding signal (z-score) [11]: 0.1 | glycan array binding signal (z-score) [12]: 0.514 | glycan array binding signal (z-score) [13]: -0.414 | glycan array binding signal (z-score) [14]: -0.569 | glycan array binding signal (z-score) [15]: -0.813 | glycan array binding signal (z-score) [16]: 0.633 | glycan array binding signal (z-score) [17]: -0.217 | glycan array binding signal (z-score) [18]: -0.077 | glycan array binding signal (z-score) [19]: -0.069 | glycan array binding signal (z-score) [20]: -0.652 | glycan array binding signal (z-score) [21]: -0.606 | glycan array binding signal (z-score) [22]: -0.424 | glycan array binding signal (z-score) [23]: -0.559 | glycan array binding signal (z-score) [24]: -0.432 | glycan array binding signal (z-score) [25]: -0.525 | glycan array binding signal (z-score) [26]: -0.322 | glycan array binding signal (z-score) [27]: -0.294 | glycan array binding signal (z-score) [28]: -0.525 | glycan array binding signal (z-score) [29]: 0.073 | glycan array binding signal (z-score) [30]: -0.516 | glycan array binding signal (z-score) [31]: -0.481
